# From the supplement of paper PMC8728848
# The other results are listed elsewhere or left out.
# Legend:
# Experiment in all cases: glycan array binding signal (z-score within array); higher = stronger binding
# Settings in all cases: glycan notation: IUPAC condensed, linker removed
# [1] = target: Gal(b1-3)GlcNAc(b1-6)[Gal(b1-3)]GalNAc
# Summary of the method: (§1)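 The Consortium for Functional Glycomics database supplied 3228 glycan arrays, of which those lacking an available protein sequence were dropped. The binding signal, a within-array Z-score, was averaged across arrays of the same protein sequence and across linkers. Negative scores can be read as non-binding.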
# [2] = target: Gal(b1-3)GlcNAc6S
# Summary of the method: as §1
# [3] = target: Gal(b1-3)[Fuc(a1-4)]GlcNAc
# Summary of the method: as §1
# [4] = target: Gal(b1-3)[Fuc(a1-4)]GlcNAc(b1-2)Man
# Summary of the method: as §1
# [5] = target: Gal(b1-3)[Fuc(a1-4)]GlcNAc(b1-2)Man(a1-3)[Gal(b1-3)[Fuc(a1-4)]GlcNAc(b1-2)Man(a1-6)]Man(b1-4)GlcNAc(b1-4)[Fuc(a1-6)]GlcNAc
# Summary of the method: as §1
# [6] = target: Gal(b1-3)[Fuc(a1-4)]GlcNAc(b1-3)Gal(b1-3)[Fuc(a1-4)]GlcNAc
# Summary of the method: as §1
# [7] = target: Gal(b1-3)[Fuc(a1-4)]GlcNAc(b1-3)Gal(b1-4)[Fuc(a1-3)]GlcNAc
# Summary of the method: as §1
# [8] = target: Gal(b1-3)[Fuc(a1-4)]GlcNAc(b1-6)GalNAc
# Summary of the method: as §1
# [9] = target: Gal(b1-3)[GlcNAc(b1-6)]GalNAc
# Summary of the method: as §1
# [10] = target: Gal(b1-3)[Neu5Ac(a2-6)]GalNAc
# Summary of the method: as §1
# [11] = target: Gal(b1-3)[Neu5Ac(a2-6)]GlcNAc(b1-4)Gal(b1-4)Glc
# Summary of the method: as §1
# [12] = target: Gal(b1-3)[Neu5Ac(b2-6)]GalNAc
# Summary of the method: as §1
# [13] = target: Gal(b1-4)Gal
# Summary of the method: as §1
# [14] = target: Gal(b1-4)GalNAc(a1-3)[Fuc(a1-2)]Gal(b1-4)GlcNAc
# Summary of the method: as §1
# [15] = target: Gal(b1-4)GalNAc(b1-3)[Fuc(a1-2)]Gal(b1-4)GlcNAc
# Summary of the method: as §1
# [16] = target: Gal(b1-4)Glc
# Summary of the method: as §1
# [17] = target: Gal(b1-4)Glc6S
# Summary of the method: as §1
# [18] = target: Gal(b1-4)GlcNAc
# Summary of the method: as §1
# [19] = target: Gal(b1-4)GlcNAc(a1-6)Gal(b1-4)GlcNAc
# Summary of the method: as §1
# [20] = target: Gal(b1-4)GlcNAc(b1-2)Man
# Summary of the method: as §1
# [21] = target: Gal(b1-4)GlcNAc(b1-2)Man(a1-3)Man(b1-4)GlcNAc(b1-4)GlcNAc
# Summary of the method: as §1
# [22] = target: Gal(b1-4)GlcNAc(b1-2)Man(a1-3)[Gal(b1-4)GlcNAc(b1-2)Man(a1-6)]Man(b1-4)GlcNAc(b1-4)GlcNAc
# Summary of the method: as §1
binder,measurement,setting,value
rCnSL-proB (Clitocybe nebularis) (protein) PTFSPIFALLAFLPFGTLASLLPQTQLVFRINPNLPGPNDVFVGYRGTNNVVGAIYERDGIKDTPMNNGADAELGPGSYITDDLFTAQIFASGSAGNNPGTTATVCKIYADGVQWRGAPKGYLPVLYFGNGQAAEQTRQTYLQGLDIPGTAIRFANLAKTPNQGPTAPRQMVVPSGGLQTLLKASCFPANHAALPQVLSYFNVRAALPPGWNIRTGPEFPNWTN,glycan array binding signal (z-score),[1],-0.511
same,glycan array binding signal (z-score),[2],-0.546
same,glycan array binding signal (z-score),[3],-0.528
same,glycan array binding signal (z-score),[4],0.757
same,glycan array binding signal (z-score),[5],-0.545
same,glycan array binding signal (z-score),[6],0.066
same,glycan array binding signal (z-score),[7],-0.035
same,glycan array binding signal (z-score),[8],0.267
same,glycan array binding signal (z-score),[9],-0.543
same,glycan array binding signal (z-score),[10],0.089
same,glycan array binding signal (z-score),[11],0.045
same,glycan array binding signal (z-score),[12],1.77
same,glycan array binding signal (z-score),[13],0.12
same,glycan array binding signal (z-score),[14],-0.622
same,glycan array binding signal (z-score),[15],0.402
same,glycan array binding signal (z-score),[16],-0.32
same,glycan array binding signal (z-score),[17],-0.06
same,glycan array binding signal (z-score),[18],-0.135
same,glycan array binding signal (z-score),[19],1.09
same,glycan array binding signal (z-score),[20],-0.07
same,glycan array binding signal (z-score),[21],-0.25
same,glycan array binding signal (z-score),[22],-0.56
